Measurements taken from PubChem BioAssay AID493208 (National Center for Advancing Translational Sciences (NCATS), 2011).
Hit rate of the full screen: of about 44,000 compounds, about 340 (0.77%) were called active. Not shown: some 5% with an inconclusive outcome. Calls come from the whole dose curve; as a rule, active = well fitted inhibition curve with a large enough effect; inconclusive = small, poorly fitted or top-dose-only effect; inactive = flat fitted curve, though single readings scatter. The list shows a part of the results.

test: Acumen qHTS Assay for Inhibitors of the mTORC1 Signaling Pathway in MEF (Tsc2-/-, p53-/-) Cells: Sytravon; settings: phospho-rpS6 immunofluorescence/PI, 24 h; series mostly up to 38.3 µM; activity change, negative = inhibition: at the top concentration; note: nearly all actives have a fitted effect of over 50% in size
Text: NIH Molecular Libraries Probe Production Centers Network [MLPCN] NIH Chemical Genomics Center [NCGC] MLPCN Grant: NS059428-01 Assay Submitter (PI): Blenis, John; Hoffman, Greg; Harvard University NCGC Assay Overview: The mammalian target of rapamycin (mTOR) is an intracellular serine/threonine kinase Aberrant regulation of mTOR signaling plays a causative role in a number of human diseases, including cancer, benign tumors such as lymphangioleiomyomatosis (LAM) and Tuberous Sclerosis Complex (TSC), and metabolic diseases such as diabetes and obesity. This project aims to identify inhibitors of ribosomal protein S6 (rpS6) phosphorylation. The phosphorylation of rpS6 is a key event downstream of mTOR activation. The assay uses a phospho-specific antibody of phospho-rpS6 to detect inhibitors of mTOR activation. Mutations in the Tsc1 and Tsc2 genes are the underlying genetic lesions responsible for TSC, causing constitutive activation of the mTORC1 pathway and leading to profound effects on cell metabolism. Aberrant metabolism in cancer has recently received significant attention as a target to develop therapeutic agents in the treatment of cancer.1 As Tsc2-/- cells have lost the ability to respond to energy and growth factor deprivation, these cells are unable to properly down regulate cellular biosynthetic processes in response to metabolic stress, and are thus extremely sensitive to glucose deprivation-induced death.2 A central goal of this project is to explore the unique cell survival and metabolic properties of cells with Tsc1 or Tsc2 by screening for compounds that selectively target the Tsc2-/- MEFs by screening both Tsc2-/- and WT MEF cell lines. We hope to better understand these aspects of TSC physiology in order to exploit them for therapeutic benefit.
NCGC Acumen Assay Protocol Summary: For quantitative high throughput analysis of mTORC1 signaling, we developed a cell-based assay for immuno-fluorescence based detection of rpS6 phosphorylation on the Acumen Explorer that will be used a platform for the primary small molecule screen. Mouse embryonic fibroblasts (MEFs) are cultured in 1536-well plates using DMEM + 10% FBS. Twenty-four hrs after plating, test compounds (solubilized in DMSO) are delivered and incubated with the cells for 24 hrs at 37 degree Celsius. Following the incubation, media with compound is aspirated and the cells are fixed in 4% paraformaldehyde (PFA) containing PBS + 0.2% TX-100. Next, PFA is aspirated, cells are washed two times with PBS plus 0.2% TX-100 and the cells are blocked for 1 hr at room temperature (blocking buffer: LiCOR Blocking Buffer plus 0.2% TX-100). […] Cells are washed two times with PBS plus 0.2% TX-100, and stained with 10 uM propidium iodide (PI) for 20-25 minutes for cell number measurement (1:500 dilution of Hoescht staining is also added for IN Cell imaging). The plates are scanned on the Acumen Explorer laser scanning instrument (TTP Labtech) using the 488nm laser for simultaneous excitation of the Alexa-488 and PI. […] The normalized phospho-S6 staining is calculated as the ratio of the integrated Alexa 488 intensity divided by the integrated PI intensity for the single concentration rapamycin control (7.5 nM) and DMSO columns. […] Inhibition of the pathway is defined based on the normalized phospho-S6 intensity in rapamycin treated cells. Active cells are defined as those with a normalized phospho-S6 staining above this threshold, and each treatment is reported as the % positive cells in the well, where thresholds are defined by selecting wells with the highest and lowest signal and differentiating between the % non-active and % active populations. In addition to the pathway specific phospho-S6 endpoint, the number of PI stained cells from the Acumen is recorded as a measure of cell viability. The primary screen was performed with a MEF cell line in a defined genetic background, Tsc2-/-, p53-/- cell line stably transfected with an empty vector control (Tsc2-/- MEF).
Potency is the fitted concentration of half-maximal effect.

Activity change, negative = inhibition, inactive:
COc1ccc(C(=O)c2oc3ccccc3c2NC(=O)c2nc(SC)ncc2Cl)cc1Cl -1.28%
CCOC(=O)N1CCc2c(sc(NCc3cccs3)c2C(=O)Nc2cc(OC)ccc2OC)C1 2.45%
CCOC(=O)c1nnn(C(CC)C(=O)Nc2c(C)cccc2C)c1C(=O)OCC (stereo not given) 3.85%
CC(C)c1ccc(Nc2cc(C(=O)NCc3cccs3)c3ccccc3n2)cc1 -18.5%
CCN(CC)C(=O)CSc1nnc2[nH]c(=O)cc(C)n12 -4.31%
Cc1ccc(NC(=O)N2CCN(c3nnc(C)c4c(C)n(-c5ccccc5)nc34)CC2)c(Cl)c1 -11.7%
CCOc1ccc(-c2cccc(NS(=O)(=O)c3ccc(Cl)s3)c2)nn1 -1.75%
CCc1ccccc1NC(=O)CCCN1C(=O)COc2ccc(C)cc21 -2.23%
CCNc1nc(Oc2ccc(OCC(=O)OC)nn2)nc(N2CCOCC2)n1 -11.5%
CCOc1ccc2nc(N3CCCC(C(=O)NCc4ccc(OC)cc4)C3)sc2c1 (stereo not given) -0.41%
Cc1cccc(OCC(=O)N(Cc2cccc(Cl)c2)Cc2ccco2)c1C -0.709%
COc1ccc2cc(-c3cn4c(n3)sc3cc(F)ccc34)c(=O)oc2c1 0.349%
COc1ccc(/C=C/c2onc(C)c2S(=O)(=O)N2CCC(C(=O)N3CCC(C)CC3)CC2)cc1 -6.18%
Cc1ccccc1CSc1nc(-c2ccccc2)nc2c1Cc1c(CO)cnc(C)c1O2 -3%
CC(C)CCNC(=O)N1CCN(S(=O)(=O)c2ccc3c(ccn3C)c2)CC1 -13.1%
CCOC(=O)c1c(S(=O)(=O)N2CCCC(C(=O)Nc3cc(C)ccc3OC)C2)c(C)n(C)c1C (stereo not given) -5.06%
CCCCNC(=O)CCn1c(=O)c2ccccc2n(Cc2cc(C)ccc2C)c1=O 2.94%
COc1cccc(C2=NN(C(C)=O)C(c3cn(-c4ccccc4)nc3-c3cccs3)C2)c1 (stereo not given) -2.83%
CCOc1ccc(CCNC(=O)CCc2cn(Cc3ccc(C)cc3)c3ccccc23)cc1 -14.7%
CC1CCN(S(=O)(=O)c2ccc3c(c2)N(CC(=O)N2CCN(c4ccc(Cl)cc4)CC2)C(=O)CO3)CC1 -19.6%
Cc1ccc(C)c(N2CCN(C(=O)c3cc(S(=O)(=O)N4CCCCC4)cn3C)CC2)c1 1.97%
COc1ccc2[nH]cc(CCNC(=O)Nc3ccc(F)cc3)c2c1 0.0602%
O=C(c1ccc(CSc2nc3ccncc3n2Cc2ccccc2F)cc1)N1CCCCCC1 -7.4%
CCCC(=O)Nc1nnc(SCc2cc(=O)c3cc(C)ccc3[nH]2)s1 -1.31%
O=C(Cn1ncc2c3ccccc3n(Cc3ccc(Cl)cc3)c2c1=O)NCCCc1ccccc1 -1.48%
COc1ccc(Nc2oc(-c3ccc(COc4ccc(OC)cc4)o3)nc2C#N)cc1 -6%
CC(C)c1ccc(Nc2cc(C(=O)NCCc3ccccc3)c3ccccc3n2)cc1 -6.73%
CCc1ccccc1N1CC(c2nc3ccccc3n2CC(C)C)CC1=O (stereo not given) -9.47%
CCC(C)NC(=O)C1CCN(C(=O)c2cc3sccc3n2Cc2ccc(Cl)cc2)CC1 (stereo not given) -0.319%
Cc1ccc(C)c(S(=O)(=O)c2nnn3c2nc(N2CCCC2)c2sccc23)c1 -6.88%
CCCCN(CC)c1ncnc2c1sc1nc(N3CCOCC3)c3c(c12)CCCC3 -9.32%
CCC(=O)Nc1ccccc1-c1nc2ccccc2n(C(CC)C(=O)Nc2cccc(C(C)=O)c2)c1=O (stereo not given) -0.862%
CCCCN(CC)CCCn1cnc2c([nH]c3ccc(Cl)cc32)c1=O -0.44%
CC(C)(C)C1CCc2nc(NC(=O)COc3ccc(F)cc3)sc2C1 (stereo not given) -12.8%
CC(=O)Nc1ccc(-n2cc3c(c2-c2ccc(C)cc2)c(=O)n(C)c(=O)n3C)cc1 7.63%
CC(C)(C)c1ccc(OCCSc2nc(-c3cccs3)nc3cc(=O)[nH]n23)cc1 3.16%
Cc1oc(-c2ccc(C(=O)Nc3ccc(F)cc3F)cc2)nc1COc1ccccc1 -8.22%
Cn1c(SCC(=O)Nc2ccc(F)cc2)nc2c([nH]c3ccccc32)c1=O -3.03%
COc1cccc(-c2cc(C(=O)NCc3ccccc3)[nH]n2)c1 -0.154%
CN(C)C(=O)c1ccc2c(c1)N(CC(=O)NCc1ccc(F)cc1)C(=O)C1CCCCN21 (stereo not given) -2.2%
Cn1cc(C(=O)O)c(=O)c2cc(S(=O)(=O)N3CCCCC3)ccc21 1.55%
Cc1ccc(CN2C(=O)c3ccccc3S(=O)(=O)c3ccc(C(=O)OCC4CCCO4)cc32)cc1 (stereo not given) -6.4%
Cc1ccc(NC(=O)C(Cc2ccccc2)NS(=O)(=O)c2ccc3c(c2)c(=O)n(C)c(=O)n3C)cc1 (stereo not given) 1.36%
CCN(C(=O)c1cc(S(=O)(=O)N2CCOCC2)cn1C)c1ccc(OC)cc1 11.5%
CCCC(=O)Oc1c(Sc2ccc(Cl)cc2)c(C)nn1-c1ccccc1 0.798%
CCOc1nc(NC(=O)NS(=O)(=O)Oc2ccc(Cl)cc2)nc(-c2ccccc2)n1 1.41%
Cc1cccn2c(=O)c3cc(C(=O)NCCc4ccc(S(N)(=O)=O)cc4)n(C)c3nc12 9.31%
COc1ccc(CCNC(=O)CCn2c(=O)c3ccccc3n(CC(=O)Nc3cccc(C)c3)c2=O)cc1OC 1.62%
CC(=O)c1ccc(NC(=O)Cn2c(-n3nc(C)cc3C)nc(C)cc2=O)cc1 -21.2%
COc1cc(OC)cc(-c2nnc(SCC(=O)N3CCC(C)CC3)o2)c1 -11.6%
Cc1ccc2c(c1)cc1c(=O)n(CC(=O)NCc3ccco3)nc(C)n12 0.857%
COc1cccc(-n2cc(C(=O)Oc3ccc(F)cc3)c3ccccc3c2=O)c1 -3.12%
Cc1nn2c(=O)cc(COC(=O)c3ccccc3NC(=O)C(C)C)nc2s1 23%
COc1cc(C(=O)Nc2cccc(OCc3cc(=O)n4c(C)csc4n3)c2)cc(OC)c1OC -1.22%
Cc1noc2ncnc(N3CCCC(C(=O)NCCC(C)C)C3)c12 (stereo not given) -13.3%
COc1ccc(S(=O)(=O)N2CCC(c3nnc(-c4ccccc4C)o3)CC2)c(OC)c1 -23.5%
Cc1ccc(S(=O)(=O)c2c(Nc3ccccc3)sc(C(=O)c3ccc4c(c3)OCO4)c2N)cc1 -11.9%
COc1ccc(-c2nc(SCC(=O)NCC3CCCO3)c(-c3ccc(Cl)cc3)[nH]2)cc1 (stereo not given) -0.912%
Cc1c(Cl)ccc2sc(NC(=O)c3ccc(S(=O)(=O)N4CCCC4)cc3)nc12 0.635%
COc1ccc(OC)c(NC(=O)Cn2ccn(-c3ccc(F)cc3)c(=O)c2=O)c1 -2.14%
O=C(NCc1ccc2c(c1)CCN2C(=O)c1ccncc1)c1ccccc1Br -1.32%
COc1ccc(C)cc1S(=O)(=O)Nc1cccc(-c2ccc(N3CCCC3)nn2)c1 -0.367%
CCCNC(=O)CCn1nc(-c2ccc(C)cc2)c2ccccc2c1=O 1.3%
Cc1ccc2ncc(C(=O)Nc3cccc(C(F)(F)F)c3)c(=O)n2c1 -1.39%
CC(C)c1ccc(NC(=O)c2cc3c(=O)oc4ccccc4c3s2)cc1 1.62%
CCOc1ccc(CCNC(=O)c2cc3c(=O)n(C)c4ccccc4c3s2)cc1OCC -5.24%
COc1ccccc1NC(=O)c1sc2cccc(Cl)c2c1Cl 6.6%
CCOC(=O)c1ccc2ncc(C(=O)OCC)c(NCCc3ccc(OC)c(OC)c3)c2c1 -9.29%
CCCC12CN3CC(C)(CN(C1)C3c1ccc(CC)cc1)C2=O (stereo not given) -12.6%
CCc1ccc(OCC(=O)NCC(c2ccc(Cl)cc2)N2CCOCC2)cc1 (stereo not given) -9.54%
O=c1cc2nc(-c3ccccc3)nc(SCc3cccc(Br)c3)n2[nH]1 3.89%
O=C(CC(c1cccs1)N1Cc2ccccc2C1=O)Nc1ccccc1 (stereo not given) 0.619%
CCN1CCN(C(=O)Cn2ncc3c4ccccc4n(Cc4ccccc4F)c3c2=O)CC1 1.24%
Cc1cccc(N2CCN(C(c3ccc(F)cc3)c3nnc(-c4ccccc4)o3)CC2)c1C (stereo not given) 7.2%
COc1cccc(N2CCN(C(=O)c3cnc4c(C)cccn4c3=O)CC2)c1 -3.22%
CC(C)Oc1ccc(CNC(=O)C2CCN(C(=O)N3CCOc4ccc(Cl)cc43)CC2)cc1 11.7%
Cc1ccccc1-c1nc(NC(=O)CSc2ncnc3sc4c(c23)CCCC4)ns1 -2.99%
COc1ccc(N2CCN(C(CNC(=O)C(=O)NCc3ccc(C)cc3)c3cccnc3)CC2)cc1 (stereo not given) -3.29%
Cc1ccc(Cl)cc1N1CCN(C(=O)C(C)n2ncn3cccc3c2=O)CC1 (stereo not given) -1.13%
CCCCN(CCCC)C(=O)c1cc2c(=O)n3ccccc3nc2s1 -27.5%
Cc1cccc(N2CCN(S(=O)(=O)c3ccc(F)c(C(=O)Nc4cccc(Cl)c4C)c3)CC2C)c1 (stereo not given) 0.359%
CCNC(=O)c1c(NC(=O)c2cc(=O)c3ccc(C)c(C)c3o2)sc2c1CCCC2 -1.58%
O=S(=O)(Nc1ccc(-c2ccc(N3CCCCCC3)nn2)cc1)c1ccc(C(F)(F)F)cc1 0.873%
COc1ccc(Nc2ncnc3c2cnn3C)c(OC)c1 0.864%
Cc1nn(-c2ccccc2)c2c1cc1c(=O)[nH]c(=O)nc-1n2-c1cccc(C(F)(F)F)c1 -7.8%
O=C(NCCSc1c(-c2ccc(Cl)cc2)[nH]c2ccccc12)c1ccc(S(=O)(=O)N2CCOCC2)cc1 -12.2%
Cc1ccc(-n2nc3c(=O)n(CCCC(=O)NCc4ccc(F)cc4)nc(C)c3c2C)cc1 -4.55%
Cc1cc(C)c(S(=O)(=O)NCC(c2ccco2)N2CCN(c3ccccc3)CC2)c(C)c1 (stereo not given) 0.476%
O=C(CN1CCN(Cc2ccc(F)cc2)C1=O)NCc1ccccc1 -12.9%
Cc1ccc2c(c1)-c1onc(C(=O)N3CCN(c4cccc(C)c4C)CC3)c1CO2 5.36%
Cc1cc(C(F)(F)F)c2c(N)c(C(=O)Nc3c(Cl)cccc3Cl)sc2n1 2.46%
COC(=O)c1c(NC(=O)c2c(OC)cccc2OC)sc2c1CCCC2 2.17%
CC1CCCCN1S(=O)(=O)c1ccc2[nH]c(=O)cc(C(=O)NCCc3ccc(Cl)cc3)c2c1 (stereo not given) -3.8%
CC(=O)c1cccc(Nc2ncnc3c2cnn3-c2cccc(Cl)c2)c1 12.3%

Potency, active:
CC(C)S(=O)(=O)c1oc(-c2ccc(F)cc2)nc1S(=O)(=O)c1ccc(F)cc1 521 nM
